B1: LINE1-mini (parent)
chain: GGCAGAGCUCAACACAGCGUGGCAAAGUGGCUGUGGCUAGACUGCC

The source gives no read counts; variants with many changes may rest on few reads.

Variants of B1 are the subject of the series. In words: self-cleavage, relative activity (ratio to wild type); higher = more cleavage; in vitro, sequencing; the parent is a self-cleaving ribozyme.
In the case of A6U G21U U34G C45A, the self-cleavage is 0.02.

For A6U G29C C37A A39G, the self-cleavage is 0.02.

For A6U C37U A39C, the self-cleavage was 0.02.

Turning to A6U C23G C46A, the self-cleavage was found to be 0.3.

Consider A6U G21U G22U, for which the self-cleavage was found to be 0.62.

For A6U C18A C37A G44A, the self-cleavage was found to be 0.04.

For A6U G7A U34C U43G, the self-cleavage was determined as 0.02.

For the variant A6U G33A G40C, the self-cleavage was 0.05.

In the case of A6U G33A G40U, the self-cleavage stood at 0.11.

On to A6U C15U U38G U43C, for which the self-cleavage worked out at 0.02.

In the case of A6U C13A A25U G40U, the self-cleavage worked out at 0.11.

Consider A6U C13U G19C C23A, for which the self-cleavage was found to be 0.24.

Regarding A6U C13A C15U C23G G27C, the self-cleavage was 0.01.

A6U G27U G29U U38C: the self-cleavage was 0.41.

With A6U C18G U28A G30U G40C C46A, the self-cleavage was determined as 0.05.

For A6U G19A G36U A41U, the self-cleavage is 0.01.

Consider A6U C13A G19U U28C G36U, for which the self-cleavage is 0.06.

Take A6U C13U A16G G40A: the self-cleavage amounted to 0.17.

Take A6U G21U G22C C31U: the self-cleavage is 0.62.

A6U G7C A25G A39U: the self-cleavage stood at 0.2.

Take A6U G7C A12G C18U G19C A24G: the self-cleavage came to 0.03.

Turning to A6U G7A G17A C42U, the self-cleavage came out at 0.02.

In the case of A6U C18U G27U G29A, the self-cleavage is 0.06.

For the variant A6U C10U U43C, the self-cleavage turned out to be 0.07.

Consider A6U C23U C31G, for which the self-cleavage stood at 0.18.

As to A6U G30A U43A, the self-cleavage was found to be 0.03.

For A6U C18A U20C, the self-cleavage stood at 0.34.

On to A6U C18A G19U G21U G36A A41C, for which the self-cleavage came out at 0.04.

For A6U G7U A39G, the self-cleavage came out at 0.02.

For the variant A6U G30C U32G A41C, the self-cleavage was found to be 0.04.

For the variant A6U G27U G30C, the self-cleavage amounted to 1.5.

In the case of A6U G7C A26U, the self-cleavage is 0.7.

Regarding A6U C23G G29U, the self-cleavage stood at 0.19.

In the case of A6U C23U U34G A39C, the self-cleavage amounted to 0.26.

As to A6U C13G U34C, the self-cleavage was determined as 0.11.

In the case of A6U G30C G35U, the self-cleavage was determined as 0.09.

For the variant A6U C23U G44A, the self-cleavage came out at 0.42.

For the variant A6U G7C A12G C15U G27C G40U, the self-cleavage worked out at 0.01.

Consider A6U C13G G29U, for which the self-cleavage came to 0.18.

For A6U C13U G17A G35U G40C, the self-cleavage is 0.61.

Turning to A6U G17A C23G G27U, the self-cleavage is 0.09.

Turning to A6U G17A G40U, the self-cleavage was found to be 0.02.

On to A6U C23A G30A, for which the self-cleavage was found to be 1.97.

For A6U C13A G19A G22A A24G U34G, the self-cleavage was found to be 0.05.

With A6U G17A G35A, the self-cleavage was determined as 0.02.

On to A6U C13G A14C, for which the self-cleavage turned out to be 0.19.

As to A6U G17U G19U G40U, the self-cleavage is 0.01.

Regarding A6U G27U C42A, the self-cleavage was 0.18.

Take A6U G30A U32A: the self-cleavage was 0.17.

Turning to A6U G19A G22A, the self-cleavage amounted to 0.77.

Take A6U C13U C31U A41U: the self-cleavage turned out to be 0.14.

On to A6U G17U C23U C46U, for which the self-cleavage worked out at 0.37.

Take A6U G21A G30U G35U A39C G40U A41U: the self-cleavage turned out to be 0.24.

For the variant A6U G33A A39G, the self-cleavage was 0.01.

As for A6U C18U G22U A24G, the self-cleavage amounted to 0.77.

As for A6U C13A G30C, the self-cleavage amounted to 0.17.

In the case of A6U G7C C15U G22A, the self-cleavage was 0.09.

A6U C15U G22A C37A: the self-cleavage is 0.12.

For the variant A6U C15A U20C A39U, the self-cleavage amounted to 0.01.

A6U G21U U38C: the self-cleavage worked out at 0.39.

A6U G7U C18G G30C: the self-cleavage was determined as 0.07.

Take A6U C13A G30U G35U: the self-cleavage was determined as 0.39.

In the case of A6U C18A G35C U38A, the self-cleavage is 0.09.

For A6U G7C G33U, the self-cleavage amounted to 0.48.

Take A6U C13U G17A G22U G36A: the self-cleavage worked out at 0.19.

In the case of A6U C31G C37A C42U C46A, the self-cleavage was found to be 0.02.

With A6U C18A G35U, the self-cleavage was 0.05.

Take A6U G7U A24C A39C: the self-cleavage was 1.19.

Consider A6U G27A U28A, for which the self-cleavage amounted to 0.91.

As to A6U C15A G19A G27C, the self-cleavage worked out at 0.05.

As for A6U G7C C8U C13A G19C A24U U32G G35A, the self-cleavage stood at 0.14.

Take A6U G7U G35C: the self-cleavage came out at 0.06.

Take A6U G22U C46G: the self-cleavage came out at 0.41.

In the case of A6U C18G G29C G40C A41G, the self-cleavage was found to be 0.07.

On to A6U C10U U28A C31U, for which the self-cleavage came out at 0.11.

For the variant A6U G29U G35U, the self-cleavage is 0.06.

Regarding A6U C15A G27C U28G C31U G40A G44A, the self-cleavage is 0.02.

For the variant A6U C15U G19U G36U, the self-cleavage is 0.19.

On to A6U C18A G21C G44U, for which the self-cleavage worked out at 0.03.

On to A6U C15A C23G, for which the self-cleavage was found to be 0.01.

Regarding A6U G7C G17C U32G, the self-cleavage was found to be 0.19.

As for A6U G33C C46G, the self-cleavage amounted to 0.07.

In the case of A6U G19A A24G C31U, the self-cleavage came out at 0.18.

As for A6U G7U C37A, the self-cleavage was 0.02.

Take A6U G22C C23A A26C: the self-cleavage is 1.35.

Regarding A6U C15G G36C A39U, the self-cleavage came out at 0.11.

As for A6U G7U G17U U43C, the self-cleavage came out at 0.05.

Consider A6U G17C G22A A25U, for which the self-cleavage worked out at 2.27.

For the variant A6U G29C G35U C42A C45G, the self-cleavage worked out at 0.01.

Take A6U C23G U43G: the self-cleavage was 0.01.

In the case of A6U G7C U9A G22A C37A, the self-cleavage was found to be 0.03.

Consider A6U G7C A12G G29U G33C C45A C46G, for which the self-cleavage stood at 0.02.

Take A6U G21A C46G: the self-cleavage turned out to be 1.45.

Take A6U G7A C23U G30A: the self-cleavage is 0.23.

Consider A6U C37U U43C, for which the self-cleavage is 0.07.

For the variant A6U G7U G17U, the self-cleavage amounted to 0.22.

Consider A6U C10U U34A G36A C42A, for which the self-cleavage came out at 0.

On to A6U G7C U20G A24C, for which the self-cleavage stood at 0.23.

A6U G7C C13A G40A C42A: the self-cleavage amounted to 0.02.

As for A6U G7A C18U, the self-cleavage came out at 0.02.

For the variant A6U G17A C23A, the self-cleavage turned out to be 0.13.

For A6U G30C C31U, the self-cleavage was 1.29.

For A6U G22U G27U, the self-cleavage amounted to 0.14.

Take A6U C13U A16G G21C U28G C31U G35C: the self-cleavage was 0.02.

As for A6U G17U U34C G35U, the self-cleavage amounted to 0.15.

Regarding A6U C13U G19U G27A G33A, the self-cleavage was determined as 0.07.

Turning to A6U C15A G30A G36U, the self-cleavage came to 0.04.

For A6U C42U G44U, the self-cleavage came out at 0.34.

In the case of A6U G22U U28G U34G, the self-cleavage was 0.12.

Turning to A6U G27A A41U, the self-cleavage turned out to be 0.12.

Turning to A6U G21A U28A G29C, the self-cleavage amounted to 0.72.

Consider A6U G22U A26U, for which the self-cleavage came out at 0.74.

On to A6U G17U G29A G30A, for which the self-cleavage is 1.6.

On to A6U G19U G44U, for which the self-cleavage came to 0.24.

Consider A6U G22U G35A, for which the self-cleavage came to 0.05.

For the variant A6U G7C C8A, the self-cleavage is 0.43.

Turning to A6U G22U C23A U38G A41G, the self-cleavage was 0.02.

For A6U G17C G19A G21C G22C, the self-cleavage amounted to 0.29.

As to A6U C13U G22A G35A C37A, the self-cleavage turned out to be 0.03.

With A6U G33U C42G, the self-cleavage was found to be 0.09.

Turning to A6U G22U G36A A39G, the self-cleavage amounted to 1.37.

With A6U G17U U20C G22A G27C G30U, the self-cleavage was 0.78.

With A6U C18A G27A U38A, the self-cleavage is 0.33.

Take A6U G19U G36C U43C: the self-cleavage amounted to 0.06.

On to A6U G17U A41C, for which the self-cleavage came out at 0.13.

Turning to A6U C15A U34C, the self-cleavage was 0.06.

A6U G17A A25U U28C G30A G33U: the self-cleavage came out at 0.1.

Regarding A6U C15A G19C U28G G36A, the self-cleavage is 0.13.

A6U C37G G40A: the self-cleavage is 0.1.

With A6U C10U U20A A25U C31G U43C, the self-cleavage was 0.07.

Take A6U C13A G27C G44U: the self-cleavage amounted to 0.12.

A6U G21C C31A: the self-cleavage is 0.15.

A6U C37U C42G: the self-cleavage is 0.41.

Take A6U C18G G30U U43G: the self-cleavage is 0.07.

As to A6U C15U A41U, the self-cleavage came to 0.1.

With A6U C13U C18G U38A G44U, the self-cleavage was found to be 0.02.

As to A6U C18G A41C, the self-cleavage is 0.07.

With A6U G19A G35C C42A, the self-cleavage was 0.16.

In the case of A6U C15U U32C, the self-cleavage was 0.11.

Regarding A6U C23U U32A U34G U38C, the self-cleavage turned out to be 0.03.

For A6U G7U U9G, the self-cleavage amounted to 0.06.

For A6U C15A A16C G27U, the self-cleavage worked out at 0.09.

As for A6U G7C C15A G21A G30C, the self-cleavage was 0.21.

Take A6U C13A C23A G33A U34A: the self-cleavage worked out at 0.06.

Consider A6U C31U U32C G33U, for which the self-cleavage came to 0.19.

In the case of A6U C13G C18U G19C C37U C45G, the self-cleavage was determined as 0.06.

In the case of A6U G7U G19U, the self-cleavage was determined as 0.03.

A6U C18A U28C C45A: the self-cleavage stood at 0.06.

Turning to A6U G30A U34A G40U A41G, the self-cleavage came to 0.04.

On to A6U G7U G22A C23U, for which the self-cleavage came to 0.05.

Regarding A6U G7U G22A A25C U28A G29C G44A C46G, the self-cleavage is 0.01.

As for A6U C15U A25G, the self-cleavage came to 0.21.

Turning to A6U G17A C37U, the self-cleavage came to 0.12.

On to A6U C13U C23A C31G C45G, for which the self-cleavage came out at 0.09.

With A6U G17A A26C G29C A39G C45U, the self-cleavage was determined as 0.19.

In the case of A6U C13A G29U G30A G44U, the self-cleavage turned out to be 0.03.

With A6U G7U C23A A24G C46A, the self-cleavage was found to be 0.07.

Take A6U G17C G19C G22U A39C: the self-cleavage worked out at 0.16.

In the case of A6U G27U G35A G44C, the self-cleavage amounted to 0.4.

With A6U C13A A14U G22C C31A, the self-cleavage is 0.08.

For the variant A6U G17C C18U G21C, the self-cleavage was 0.08.

With A6U C31A U38A, the self-cleavage came out at 0.03.

On to A6U C37A U43A, for which the self-cleavage turned out to be 0.05.

On to A6U G21U G33A, for which the self-cleavage amounted to 0.12.

For the variant A6U C37A A39U, the self-cleavage came to 0.11.

For A6U C13A U34A C45U, the self-cleavage was 0.03.

Consider A6U G29U C42U, for which the self-cleavage is 0.28.

Values taken from the RNAGym collection of RNA variant scans (doi:10.7554/elife.90254).
